Results as given in PubChem BioAssay AID2060354 (Molecular Pharmacology Branch, DTP, NCI, 2025).
Certain results were filed several times, with different values. The list is limited to them. There may be further records. Results that share an entry repeat one measurement in other runs, samples, wells, individuals or studies. Brackets with × say how often a value occurs here.

System: 519858-162-T-J1-PDC spheroid growth inhibition
Test: Anticancer human tumor 519858-162-T-J1-PDC patient-derived colon adenocarcinoma cell line growth inhibition [TAK]
Conditions: stronger effect = lower value, spheroids with HUVEC and MSC
Source text: Combinatorial screen of targeted agents with TAK-243 and ipatasertib in multi-cell type tumor spheroids
A high-throughput screen of multi-cell type tumor spheroids was designed to identify active combinations of targeted small molecules and TAK-243 or ipatasertib. Complex spheroids include a stromal component modeled by human endothelial cells (HUVEC) and fibroblasts modeled by human mesenchymal stem cells (MSCs). The concentration ranges selected for each drug and investigational agent were based upon clinically achievable concentrations if the clinical Cmax of the agent was known.
Compounds. The drugs and investigational agents: TAK-243 (785004), ipatasertib (767898), everolimus (733504), selumetinib (741078), bortezomib (756655), trametinib (758246), ixazomib (758254), vemurafenib (761431), dabrafenib (764134), sapanisertib (764658), alpelisib (765974), and copanlisib (816437), were obtained from the National Cancer Institute (NCI) Developmental Therapeutics Program Chemical Repository. The FDA-approved anticancer drug set is available from the NCI Developmental Therapeutics Program. […] The stock solutions were prepared in dimethyl sulfoxide (DMSO, Sigma-Aldrich, St. Louis, MO, cat. D2650) at 800-fold the tested concentration and stored at -70 degrees C prior to their use. All drugs and investigational agents were tested over a range starting from a high concentration at or near the clinical Cmax and decreasing in half-log increments. If the clinical Cmax for an agent had not been determined, the highest concentration tested was 10 microM.
NCI60 Cell Culture. NCI60 cell lines were obtained from the NCI Developmental Therapeutics Program Tumor Repository. For each lot of cells, the Repository performed Applied Biosystems AmpFLSTR Identifiler testing with PCR amplification to confirm consistency with the published Identifier STR profile for each cell line. Cells were kept in continuous culture for no more than 20 passages. The optimal seeding densities for each of the cell lines at each time point assessed were determined prior to performing the concentration response studies. Briefly, the NCI60 human tumor lines were grown as monolayers in RPMI 1640 medium supplemented with 10% FBS and 2 mmol/L L-glutamine.
An additional 2 lines were from the NCI60 cell line panel including melanomas, MALME-3M and SK-MEL-2. Pooled donor human umbilical vein endothelial cells (HUVEC, Lonza, cat. CC-2519) and human mesenchymal stem cells (hMSC, Lonza, cat. PT-2501) were purchased from Lonza (Walkersville, MD).
PDMR cell lines were grown in complete medium (DC medium): Dulbecco's modified Eagle's medium (DMEM)/F12 supplemented with 5% fetal bovine serum (FBS), 2 mM L-glutamine, 100 U/mL penicillin and 100 µg/ml streptomycin, 0.4 µg/ml hydrocortisone, 10 ng/ml epidermal growth factor (EGF) recombinant human protein, 24 µg/mL adenine, and 0.1 mg/mL primocin. During culture from frozen stock vials, PDMR cells were cultured in the same medium containing 10 µM Y-27632 (see Table 3). The PDCs were cultured in complete DMEM/F12 media without 10 microM Y-27632 dihydrochloride for at least two passages prior to the screen. The pooled donor HUVEC and hMSC were cultured in endothelial cell growth medium 2 (PromoCell, Heidelberg, Germany, cat. C-22011) and mesenchymal stem cell growth medium 2 (PromoCell, cat. C-28009), respectively. For all experiments, HUVEC and hMSC were used at passages </=5.
For the pre-screen, cell seeding densities were determined from a titration spanning the range from 5,000 to 313 cells per well. The mct-spheroids including 60% malignant cells, 25% HUVEC and 15% MSC dispensed as a mixture into U-bottom Ultra-Low Attachment 384-well plates (Corning, NY)
High-throughput Drug Combination Screening.
Prior to their inoculation into 384-well plates, malignant cells, HUVEC, and hMSC were removed from T flasks using TrypLE express (Thermo Fisher Scientific, cat. 12605036) and harvested by centrifugation for 5 min at 233 x g. […]
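Further: spheroids exposed to drugs for 7 days.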

`CC(C)CC(NC(=O)CNC(=O)c1cc(Cl)ccc1Cl)B1OC(=O)CC(CC(=O)O)(C(=O)O)O1` (stereo unspecified) was tested, and the viability, T/C (compound alone 0.001 µM) was 117% and 79.8%.
In the case of `COC1CC2CCC(C)C(O)(O2)C(=O)C(=O)N2CCCCC2C(=O)OC(C(C)CC2CCC(OCCO)C(OC)C2)CC(=O)C(C)C=C(C)C(O)C(OC)C(=O)C(C)CC(C)C=CC=CC=C1C` (stereo unspecified), the viability, T/C (compound alone 0.001 µM) is reported as 74.8% and 100%.
`CC(C)NCC(C(=O)N1CCN(c2ncnc3c2C(C)CC3O)CC1)c1ccc(Cl)cc1` (stereo unspecified) was tested, and the viability, T/C (compound alone 0.3 µM) was 89, 101 (2×), 94.7, 69.9, 102, 77.5, 89.9, 87.1, 95.8%, the viability, T/C (compound alone 0.949 µM) was 108, 94.9, 79.5, 89.2, 105, 104, 76.9, 79.4, 101, 77.7% and the viability, T/C (compound alone 9.49 µM) was 92.8, 87.7, 88.6, 96.5, 101, 67.3, 85.8, 98.3, 100, 94%.
With `CC(C)n1nc(-c2ccc3oc(N)nc3c2)c2c(N)ncnc21` the viability, T/C (compound alone 0.000316 µM) was 77.9% and 108%.
